This note sets out measurements from the supplement of paper PMC4604168 (melanoma cell lines).

Some of the results follow. Many values rest on one well or one pass, so single values are uncertain.
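Further: cells treated in 1,536-well plates, then fixed and DAPI-stained, with nuclei counted from automated high-throughput microscope images.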

This assay concerns IPC-298. The assay can be described thus: cell count relative to DMSO control; melanoma cells; higher = more viable cells. The following applies: library dose: standard library concentration; 72 h.
Regarding `Nc1ncn([C@H]2C[C@H](O)[C@@H](CO)O2)c(=O)n1` [decitabine] + CC1(C)NC(=O)N(c2ccc([N+](=O)[O-])c(C(F)(F)F)c2)C1=O [nilutamide] (first compound 0.5 µM, partner dose 5 µM), the cell count was found to be 66.4%. As for `CC(=O)O[C@@]12CO[C@@H]1C[C@H](O)[C@@]1(C)C(=O)[C@H](O)C3=C(C)[C@@H](OC(=O)[C@H](O)[C@@H](NC(=O)OC(C)(C)C)c4ccccc4)C[C@@](O)([C@@H](OC(=O)c4ccccc4)[C@H]21)C3(C)C` [Docetaxel] + CN(NC(=O)CC(=O)NN(C)C(=S)c1ccccc1)C(=S)c1ccccc1 [STA4783] (first compound 0.0005 µM, partner dose 0.03 µM), the figure is 33%; as for `CC(=O)O[C@@]12CO[C@@H]1C[C@H](O)[C@@]1(C)C(=O)[C@H](O)C3=C(C)[C@@H](OC(=O)[C@H](O)[C@@H](NC(=O)OC(C)(C)C)c4ccccc4)C[C@@](O)([C@@H](OC(=O)c4ccccc4)[C@H]21)C3(C)C` [Docetaxel] + O=C(O)[C@@H]1[O][Sb](=[O])([O][Sb]2(=[O])[O][C@H]([C@H](O)CO)[C@H](O)[C@H](C(=O)O)[O]2)[O][C@H]([C@H](O)CO)[C@@H]1O [stibogluconate] (first compound 0.0005 µM, partner dose 10 µM), 37.8%; as for `Nc1ccn([C@@H]2O[C@H](CO)[C@@H](O)C2(F)F)c(=O)n1` [gemcitabine] + O=C(O)C(=O)Nc1sc2c(c1C(=O)O)CCNC2 [TCS401] (first compound 0.002 µM, partner dose 8.33333 µM), 51.6%. As for `CC(=O)O[C@@]12CO[C@@H]1C[C@H](O)[C@@]1(C)C(=O)[C@H](O)C3=C(C)[C@@H](OC(=O)[C@H](O)[C@@H](NC(=O)OC(C)(C)C)c4ccccc4)C[C@@](O)([C@@H](OC(=O)c4ccccc4)[C@H]21)C3(C)C` [Docetaxel] + C[C@]1(c2nc3c(C(N)=O)cccc3[nH]2)CCCN1 [Veliparib] (first compound 0.0005 µM, partner dose 7 µM), the figure is 38.4%; as for `CC(=O)c1c(C)c2cnc(Nc3ccc(N4CCNCC4)cn3)nc2n(C2CCCC2)c1=O` [palbociclib] + N#Cc1c(O)c2c(-c3ccc(-c4ccccc4O)cc3)csc2[nH]c1=O [A769662] (first compound 0.2 µM, partner dose 10 µM), 80.7%; as for `Nc1ccn([C@@H]2O[C@H](CO)[C@@H](O)C2(F)F)c(=O)n1` [gemcitabine] + C=CCNC1=C2C[C@@H](C)C[C@H](OC)[C@H](O)[C@@H](C)/C=C(\C)[C@H](OC(N)=O)[C@@H](OC)/C=C\C=C(/C)C(=O)NC(=CC1=O)C2=O [Tanespimycin] (first compound 0.002 µM, partner dose 0.01 µM), 43.7%. Next, `CC(=O)c1c(C)c2cnc(Nc3ccc(N4CCNCC4)cn3)nc2n(C2CCCC2)c1=O` [palbociclib] + O=C(Nc1cccc(Cl)c1)Nc1ncc(CCNc2ncnc3ccsc23)s1 [SNS314] (first compound 0.2 µM, partner dose 0.004 µM): 73.2%; `CC(=O)O[C@@]12CO[C@@H]1C[C@H](O)[C@@]1(C)C(=O)[C@H](O)C3=C(C)[C@@H](OC(=O)[C@H](O)[C@@H](NC(=O)OC(C)(C)C)c4ccccc4)C[C@@](O)([C@@H](OC(=O)c4ccccc4)[C@H]21)C3(C)C` [Docetaxel] + c1cc(-c2cnn3cc(-c4ccc(OCCN5CCCCC5)cc4)cnc23)ccn1 [Dorsomorphin] (first compound 0.0005 µM, partner dose 2 µM): 34%. The molecule `Nc1ncn([C@H]2C[C@H](O)[C@@H](CO)O2)c(=O)n1` [decitabine] + COC(=O)c1sccc1S(=O)(=O)Nc1ccc(Nc2ccccc2)cc1OC [GSK0660] (first compound 0.5 µM, partner dose 5 µM) displayed a cell count of 53.7%. Take `CO[C@H]1C[C@@H]2CC[C@@H](C)[C@@](O)(O2)C(=O)C(=O)N2CCCC[C@H]2C(=O)O[C@H]([C@H](C)C[C@@H]2CC[C@@H](OCCO)[C@H](OC)C2)CC(=O)[C@H](C)/C=C(\C)[C@@H](O)[C@@H](OC)C(=O)[C@H](C)C[C@H](C)/C=C/C=C/C=C/1C` [everolimus] + Clc1ccc(Nc2nnc(Cc3ccncc3)c3ccccc23)cc1 [vatalanib] (first compound 0.1 µM, partner dose 10 µM): the cell count is 58.9%.
